Data from the supplement of paper PMC11417369.
± gives the standard deviation of the averaged measurements. Some of the results follow.

The sequences below were run on PfAP2-LT AP2 domain (GST-tagged) (assay: gcPBM binding intensity (ln(normalized median fluorescence intensity)); higher = stronger DNA binding).
Outline: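 DNA-binding domains from P. falciparum, fused to GST and produced in E. coli, were put on an Agilent 4 × 180k double-stranded probe array for 1 h in 1× PBS holding 1% milk, 0.2 mg/ml BSA, 0.5% salmon testes DNA and 0.03% Triton X-100. Probes were primer-extended, 36 bp long and drawn from intergenic genomic regions, with negative controls included. After Alexa488 anti-GST antibody detection and a 488 nm scan, binding intensity was set as the highest Masliner-normalised natural-log median intensity across replicate spots of either probe orientation.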

Sequence | gcPBM binding intensity (ln)
TGATTATCCTTCAGGAGTACATATAATATAATATAT [XGTACX_site1479] | 8.8 ± 0.4
TATAAACCGACGAAAACACACATATGTAAATATATA [CACACA_site491] | 9.22 ± 0.47
TTTTATGTTTATGTGGTGCATGTTTTGAAGAAAATA [GTGCAC_site9616] | 8.58 ± 0.3
AAACCTATGTATATTATACACACTCCAAACTATTAT [CACACA_site8536] | 8.96 ± 0.34
ATTACCATATTTTGTACACACATCTTTATCTCAATA [CACACA_site3217] | 9.28 ± 0.49
TAAAAATTAAAGTGTACACATATATATATATATATA [CACACA_site4781] | 9.695 ± 0.035
TAAAATAATATATGGTGTACACAAAAGTATAAATAA [XGTACX_site4991] | 9.05 ± 0.56
TATATATATATATTATGTACTCATTTATTATCTTTT [XGTACX_site8051] | 9.04 ± 0.43
ATATAAAAAAAATTTAGTACATATATATATATATAT [XGTACX_site8635] | 9.33 ± 0.042
AAAAAAATAATTAACACACACATGTATATCTATATA [CACACA_site3139] | 9.09 ± 0.37
CGGGGGTAGTTTTATGCACACGTTTATTAATGCTTC [CACACA_site5717] | 9.38 ± 0.27
TGAAAAACTATCAGAGTGCATATATAGCTCGATACA | 8.89 ± 0.45
ACCAATAATATACATACACACATAAATGTTTATATA [CACACA_site4328] | 9.06 ± 0.47
ACATGAATATATACACGTACATATATACATATATAT [XGTACX_site5872] | 9.05 ± 0.43
TTATTAAAGGAAAAATGTACATATAAATGAATATGT [XGTACX_site23] | 8.62 ± 0.5
AAAAAATGTAAATATAAACAACCAAAGGGGGTATAC [GTGCAC_negctrl_site465] | 9.14 ± 0.41
TTAAAGTATAACTGTACATGCGAGTAAAAGAATGAC [TGCATGCA_site899] | 9.09 ± 0.4
ATTAAATATATTTTGCGTACACAAAAAAATACGTTC [XGTACX_site3862] | 8.78 ± 0.42
ATAATATTTTATGGTTGTACTTTTAGTTCTTTTTTT [XGTACX_site5756] | 8.82 ± 0.48
TACGTGAAGTTATATACACACATAAATATGTCTGTA [CACACA_site7463] | 8.93 ± 0.34
GAAAAAAAACACATTGTGCACTTTTCCTTAAGTATA [GTGCAC_site9475] | 8.66 ± 0.45
TTTTTTTCGTATATTACACACTATATATAGAAATTA [CACACA_site298] | 8.61 ± 0.38
GGAGAAAAAAAAAAAAAACACACGGTACATTCAAAG [CACACA_site1503] | 8.97 ± 0.54
AAAAAAAAAAAGCACACACACATATGCGTATATATA [CACACA_site954] | 9.51 ± 0.28
AAATTATCCAAAAATTGTACTTAAAACAACATAAAA [XGTACX_site6238] | 8.63 ± 0.51
